Results on 43 molecules are retold here after ChEMBL document CHEMBL4888484, “Replenishing the malaria drug discovery pipeline: Screening and hit evaluation of the MMV Hit Generation Library 1 (HGL1) against asexual blood stage Plasmodium falciparum ,using a nano luciferase reporter read-out” (2022).

In all, about 150,000 compounds went through this assay and about 540 (0.36%) showed an effect of 50% or more. The list shows a part of the results.

The assay deals with Plasmodium falciparum. The experiment in a line: Primary screen in NF54 nanoGlo assay, in single point, at 2uM, 72h; a lower Z score goes with more inhibition. The settings on record: timepoint 72 hour. In kind it is functional, Erythrocyte.
The % Inhibition is the change of the read-out against control, counted positive when it falls. As to `CCCS(=O)(=O)N1CCc2cc3cccc(C)c3nc21`, the “% Inhibition” value came out at 6% and the Z score was -0.7.
Taken in the same sequence, the figures for `COc1ccccc1NC(=O)CN1CCC2(CC1)CNC(=O)O2` were -14% and 1.66.
In the case of `C[C@H](O)CNC(=O)c1ccc(OC2CCOCC2)nc1`, the “% Inhibition” value is recorded as -1% and the Z score is on record as 0.27.
Take `Nc1ncnc(NCc2ccccc2)n1`: the “% Inhibition” value is 0% and the Z score was found to be 0.05.
Take `C[C@@H](CC(=O)NC1(c2c(F)cccc2F)COC1)c1ccco1`: the “% Inhibition” value is -7% and the Z score worked out at 0.84.
Take `Cc1ccc2c(c1)C(NC(=O)Cn1cc(S(N)(=O)=O)cn1)C(C)C2` (stereo unspecified): the “% Inhibition” value is on record as -15% and the Z score worked out at 2.42.
For the molecule `OCc1ccnc(N2CCCCCC2)n1`, the “% Inhibition” value is listed as -2% and the Z score is given as 0.42.
With `O=C(C[C@@H]1O[C@H](CNCc2ccc(F)cc2)[C@@H](O)[C@H]1O)Nc1ccccc1`, the “% Inhibition” value was 34% and the Z score is recorded as -3.81.
As to `COc1cc(-c2cc(N)nc(N)n2)c(Cl)cn1`, the “% Inhibition” value is listed as 11% and the Z score is -1.48.
Turning to `Cc1cnc(-c2nc3c([nH]2)CCCNC3=O)cn1`, the “% Inhibition” value is listed as -1% and the Z score is recorded as 0.11.
`CCN(CCC#N)C(=O)CNC(=O)c1ccc(Br)cc1`: the “% Inhibition” value came out at 14% and the Z score was -1.51.
As to `CC(C)(C)n1ncc(-c2ccccc2)c1NC(=O)CN1CCOC1=O`, the “% Inhibition” value is recorded as -9% and the Z score was found to be 1.68.
With `CC1CCN2C(=O)N(c3ccc4c(c3)C(=O)NC4=O)C(=O)C2C1` (stereo unspecified), the “% Inhibition” value is recorded as -5% and the Z score stood at 0.7.
Take `Cc1cc(C)n(CC(=O)Nc2cn(C)nn2)n1`: the “% Inhibition” value is given as -7% and the Z score came to 0.65.
The like results for `O=C(C[C@H](c1ccc(OCc2ccccc2)cc1)c1c[nH]c2ccccc12)NCc1ccccc1` were, in that order, 2% and -0.21.
With `CCn1nccc1NC(=O)Cn1cc(-c2cc(OC)nc(N)n2)cn1`, the “% Inhibition” value is recorded as -14% and the Z score is recorded as 2.39.
As for `CC(C)CC1(NC(=O)N(C)[C@@H](CN(C)C)c2ccccc2)CC1`, the “% Inhibition” value amounted to 5% and the Z score is listed as -0.61.
Taken in the same sequence, the figures for `C=CCNC(=O)N1CCCc2cc(OC)ccc2C1` were -9% and 1.68.
As to `C[C@@H](CCc1nc(C2CC2)n[nH]1)N1CCN(C)CC1`, the “% Inhibition” value is listed as 0% and the Z score was found to be 0.05.
For the molecule `CC(C)(NCc1cnns1)c1cccc(Cl)c1`, the “% Inhibition” value was -7% and the Z score amounted to 1.
Turning to `CCn1ncc(CNC[C@H]2CCCCN(Cc3ccccc3)C2)n1`, the “% Inhibition” value is -5% and the Z score is 0.77.
For `COc1ccc(C2=NNC(=O)c3ccccc3C2)cc1OC`, the “% Inhibition” value is on record as -9% and the Z score is given as 1.66.
The like results for `CC(C)(C)c1cc(C[C@H]2CNCC[C@H]2CC(=O)N2CCN(Cc3ccccc3)CC2)no1` were, in that order, 31% and -3.53.
With `CC1(C)C[C@]1(C(=O)N[C@H]1C[C@@H](C(=O)O)C1)c1ccccc1`, the “% Inhibition” value was 8% and the Z score is recorded as -1.56.
For `CC(C)N(CC1CC2C=CC1C2)S(=O)(=O)c1cnn(C)c1` (stereo unspecified), the “% Inhibition” value is listed as -6% and the Z score is listed as 0.92.
Regarding `O=C(NC[C@H]1CCCN(Cc2ccc3nonc3c2)C1)c1ncn[nH]1`, the “% Inhibition” value is reported as -10% and the Z score came to 1.27.
The like results for `CN(C[C@H]1CC(=O)N(C(C)(C)C)C1)S(=O)(=O)Cc1cccc(Cl)c1` were, in that order, 9% and -1.7.
Take `Cc1nc(C(=O)N(C)C)ccc1C(=O)OCCc1ccccc1`: the “% Inhibition” value was -7% and the Z score worked out at 0.9.
As for `Cc1nc(NC[C@H]2CN(C)CCN2C)ccc1Cl`, the “% Inhibition” value is -2% and the Z score was 0.35.
Regarding `CC[C@H]1COCCN1Cc1c[nH]nc1-c1cc(C)ccc1C`, the “% Inhibition” value is -12% and the Z score was determined as 1.86.
The like results for `CCC(CC)(CNC1CCCC1)C(=O)O` were, in that order, -1% and 0.16.
For `O=C1NCc2ccc(NCC(=O)N(C3CCCCC3)C3CCCCC3)cc21`, the “% Inhibition” value is on record as -16% and the Z score is given as 2.58.
`CC1(C)Cc2ccccc2N1Cc1cn(C[C@H]2CCOC2)nn1`: the “% Inhibition” value is -4% and the Z score came to 0.47.
Take `O=C(c1cccc(C(F)(F)F)c1)N1C[C@@H](CO)[C@H](c2ccccn2)C1`: the “% Inhibition” value is -1% and the Z score was found to be 0.18.
On to `O=C(N/C(=C/c1ccccc1)C(=O)N1CCCCCC1)c1ccc(Cl)cc1Cl`, for which the “% Inhibition” value is -14% and the Z score is listed as 1.84.
Turning to `CN1CCC(NC(=O)[C@H]2C[C@@H]2c2ccccc2)CC1=O` (stereo partly specified), the “% Inhibition” value is -2% and the Z score is listed as 0.38.
`Cc1nn(C)c(-n2cccn2)c1C(=O)N1CCN(c2ccccc2F)CC1`: the “% Inhibition” value was determined as 27% and the Z score is on record as -3.04.
Consider `COc1cccc(N2CCN3c4ccccc4CC(C(=O)NC4CCCCC4)C3C2)c1` (stereo unspecified), for which the “% Inhibition” value was determined as 0% and the Z score is reported as -0.03.
`O=C(Nc1ccc(N2CCCC2)c2ncccc12)c1cnccn1`: the “% Inhibition” value came to 1% and the Z score was -0.29.
As to `CC(C)Cc1ncc(CNC(=O)N(C)CC2CCCCC2O)s1` (stereo unspecified), the “% Inhibition” value is 9% and the Z score is given as -1.07.
As for `CN(Cc1cccnc1)Cc1nc(C2(O)CCN(CC3CCCCC3)CC2)cs1`, the “% Inhibition” value is on record as -1% and the Z score came out at 0.15.
As to `CCn1nc(C)c2c1c(=O)n(CCc1ccccc1)c(=O)n2Cc1c(F)cccc1Cl`, the “% Inhibition” value is -1% and the Z score was 0.05.
Taken in the same sequence, the figures for `COc1cccc2c1[C@H](C(=O)NCc1cn(C)nc1OC)CC2` were -1% and 0.07.
